Data: paper PMC10382678
Results are given in words; binding and its absence hold for the method and conditions named. For part of these data: Binding seen in cells or lysates may run through a third protein. Some entries that bind do so weakly or less than the wild type. For part of these data: Where a sequence is shown, tags or fusion partners need not be part of it. Each block holds one substance with its values, some of them ahead of it.

Key:
[1] = target: ectoLRP4-Myc (extracellular domain of rat LRP4 fused to one Myc tag followed by a 6xHis tag) (rat) (UniProt Q9QYP1); assay: pull-down; ectoLRP4-Myc, ectoLRP6-Myc or ectoMuSK-Myc from conditioned media immobilised on protein G magnetic beads precoated with anti-Myc; incubated with 0.25 Ellman units of sucrose gradient-purified AChE-ColQ (A12) or AChE (G1), 4 °C overnight; bound AChE activity measured by the Ellman method; only the binder purified
[2] = target: T1, ectoMuSK-Myc (secreted Myc-tagged ectodomain of rat MuSK, Myc followed by 6xHis at the COOH terminus) (rat) (UniProt Q62838); assay: as above
T1 sequence: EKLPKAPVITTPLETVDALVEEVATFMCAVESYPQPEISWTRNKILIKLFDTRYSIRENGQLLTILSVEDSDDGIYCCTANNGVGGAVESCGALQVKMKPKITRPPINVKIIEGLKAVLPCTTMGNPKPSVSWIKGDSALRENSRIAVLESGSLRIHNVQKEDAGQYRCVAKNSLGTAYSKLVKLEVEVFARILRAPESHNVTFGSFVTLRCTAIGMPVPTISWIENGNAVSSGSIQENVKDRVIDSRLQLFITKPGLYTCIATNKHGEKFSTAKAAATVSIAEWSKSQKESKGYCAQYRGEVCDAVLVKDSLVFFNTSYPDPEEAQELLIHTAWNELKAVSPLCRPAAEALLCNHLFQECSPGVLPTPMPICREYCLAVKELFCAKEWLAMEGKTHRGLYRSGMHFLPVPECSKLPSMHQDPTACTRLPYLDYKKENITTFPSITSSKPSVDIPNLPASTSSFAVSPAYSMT

[3] = target: ectoLRP6-Myc (human LRP6-Myc with the intracellular and transmembrane domains deleted) (human) (UniProt O75581); assay: as above
[4] = target: LRP4-Myc (rat low-density lipoprotein receptor-related protein 4 with a C-terminal Myc tag) (rat) (UniProt Q9QYP1); assay: co-IP; HEK 293T cells cotransfected with two constructs, lysed 48 h later in 50 mM Tris, 150 mM NaCl, 3 mM EDTA, 20 mM NaF, 1% Triton X-100, pH 7.4; IP with anti-Flag (ColQ-Flag) or anti-Myc antibodies and protein G Dynabeads, 3 h at 4 °C; Western immunoblot
[5] = target: LRP4-Myc (rat low-density lipoprotein receptor-related protein 4 with a C-terminal Myc tag) (rat) (UniProt Q9QYP1); assay: co-IP; same experiment as in HEK 293T cells but in COS cells; data not shown
[6] = target: endogenous LRP4 of ColQ-/- myotubes (UniProt Q8VI56); assay: co-IP; ColQ-/- myotubes transduced with rAAV2-ColQ-Myc, lysed about 4 days later; IP of endogenous LRP4 with polyclonal anti-LRP4 antibodies; blot with anti-Myc
[7] = target: ColQ-Flag (rat collagen Q, ColQ1a, with a Flag epitope after amino acid 26) (rat) (UniProt O35167); assay: co-IP; HEK 293T cells cotransfected with ColQ-Flag, MuSK-HA and LRP4-Myc together; IP with anti-Flag; blot with anti-HA or anti-Myc; band intensities normalised to precipitated ColQ and compared with the cotransfection of two constructs
[8] = target: ColQ-Flag (rat collagen Q, ColQ1a, with a Flag epitope after amino acid 26) (rat) (UniProt O35167); assay: co-IP; HEK 293T cells cotransfected with two constructs, lysed 48 h later in 50 mM Tris, 150 mM NaCl, 3 mM EDTA, 20 mM NaF, 1% Triton X-100, pH 7.4; IP with anti-Flag (ColQ-Flag) or anti-Myc antibodies and protein G Dynabeads, 3 h at 4 °C; Western immunoblot
[9] = target: ColQ-Flag (rat collagen Q, ColQ1a, with a Flag epitope after amino acid 26) (rat) (UniProt O35167); assay: co-IP; same experiment as in HEK 293T cells but in COS cells; data not shown
[10] = target: ColQ-Flag (rat collagen Q, ColQ1a, with a Flag epitope after amino acid 26) (rat) (UniProt O35167); assay: pull-down; ColQ-Flag from HEK 293T lysates immobilised on anti-Flag protein G magnetic beads; incubated with purified ectoLRP4-AP or with 500 nM His-tagged recombinant neural agrin, 4 °C overnight; Western immunoblot; only the binder purified
[11] = target: AChE-ColQ hetero-oligomers, A12 asymmetric forms (ColQ-Flag trimer with three AChE tetramers) (rat) (UniProt O35167+P37136); assay: ELISA; plate-binding assay with wells coated with sucrose gradient-purified A12 forms of AChE-ColQ-Flag; data not shown; only the target purified
[12] = target: ColQ-Flag (rat collagen Q, ColQ1a, with a Flag epitope after amino acid 26) (rat) (UniProt O35167); assay: ELISA; plate-binding assay (modified ELISA): ColQ-Flag or AdipoQ-Flag from HEK 293T lysates immobilised on anti-Flag precoated wells; AP or AP fusion proteins in conditioned media (10 to 100 nM, equal AP activity) in TBS-0.05% Tween, 1 mM MgCl2, overnight at 4 °C; bound AP activity read with pNPP at …
[13] = target: AdipoQ-Flag (Flag-tagged human adiponectin) (human) (UniProt Q15848); assay: as above
[14] = target: ColQ-Flag (rat collagen Q, ColQ1a, with a Flag epitope after amino acid 26) (rat) (UniProt O35167); assay: ELISA; plate-binding assay, competition: ColQ-coated wells incubated with 25 nM ectoLRP4-AP with 500 nM neural agrin or BSA as control; the pair that is blocked
[15] = target: ColQ-Flag (rat collagen Q, ColQ1a, with a Flag epitope after amino acid 26) (rat) (UniProt O35167); assay: pull-down; ColQ-Flag or ColQΔCt-Flag from HEK 293T lysates immobilised on protein G magnetic beads precoated with anti-Flag; incubated with conditioned media of HEK 293T cells containing the Myc-tagged ectodomains, 4 °C overnight; Western immunoblot
[16] = target: ColQ-Flag (rat collagen Q, ColQ1a, with a Flag epitope after amino acid 26) (rat) (UniProt O35167); assay: pull-down; ColQ-Flag-coated beads incubated with purified ectoLRP4-Myc or purified ectoMuSK-Myc; data not shown; only the binder purified
[17] = target: ColQ-Flag (rat collagen Q, ColQ1a, with a Flag epitope after amino acid 26) (rat) (UniProt O35167); assay: condition: also at much higher concentrations of ectoLRP6-Myc (Fig. 2B); pull-down; ColQ-Flag or ColQΔCt-Flag from HEK 293T lysates immobilised on protein G magnetic beads precoated with anti-Flag; incubated with conditioned media of HEK 293T cells containing the Myc-tagged ectodomains, 4 °C overnight; Western immunoblot
[18] = target: ColQ-Flag (rat collagen Q, ColQ1a, with a Flag epitope after amino acid 26) (rat) (UniProt O35167); assay: condition: also at a 10 times higher concentration (not shown); ELISA; plate-binding assay (modified ELISA): ColQ-Flag or AdipoQ-Flag from HEK 293T lysates immobilised on anti-Flag precoated wells; AP or AP fusion proteins in conditioned media (10 to 100 nM, equal AP activity) in TBS-0.05% Tween, 1 mM MgCl2, overnight at 4 °C; bound AP activity read with pNPP at …
[19] = target: ColQ-GFP (rat ColQ1a with a GFP tag after amino acid 20) (rat) (UniProt O35167); assay: co-IP; co-immunoprecipitation with ColQ-GFP, ColQ-Myc and nontagged LRP4 constructs; data not shown
[20] = target: T2, ColQ-Myc (mouse ColQ1a with a Myc tag at the COOH terminus) (mouse) (UniProt O35348); assay: as above
T2 sequence: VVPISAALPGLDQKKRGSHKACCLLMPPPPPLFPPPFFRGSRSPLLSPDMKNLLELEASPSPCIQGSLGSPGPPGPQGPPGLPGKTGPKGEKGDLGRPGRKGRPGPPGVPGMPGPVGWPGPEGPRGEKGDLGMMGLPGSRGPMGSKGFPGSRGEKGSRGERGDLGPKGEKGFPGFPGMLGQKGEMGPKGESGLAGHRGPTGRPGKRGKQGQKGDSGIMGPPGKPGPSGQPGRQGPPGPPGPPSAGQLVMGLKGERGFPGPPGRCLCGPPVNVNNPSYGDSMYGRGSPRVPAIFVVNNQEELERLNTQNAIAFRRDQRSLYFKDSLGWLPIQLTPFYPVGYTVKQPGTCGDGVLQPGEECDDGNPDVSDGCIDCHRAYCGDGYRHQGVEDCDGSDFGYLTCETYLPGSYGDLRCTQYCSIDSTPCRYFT

Substance: AChE-ColQ hetero-oligomers, A12 asymmetric forms (ColQ-Flag trimer with three AChE tetramers) (from UniProt O35167 23-458; P37136 32-614) (complex)
- binding [1]: binds
- binding [2]: no binding (tested: 0.25 Ellman unit)
- binding [3]: no binding (tested: 0.25 Ellman unit)

Substance: ColQ-Flag (rat collagen Q, ColQ1a, with a Flag epitope after amino acid 26) (from UniProt O35167 23-458)
- binding [4]: binds
- binding [5]: binds

Substance: ectoLRP4-AP (alkaline phosphatase-conjugated ectodomain of mouse LRP4) (from UniProt Q8VI56 21-1725) (domain or fragment)
- binding [10]: binds
- binding [11]: binds
- binding [12]: binds
- binding [13]: no binding
- binding [14]: binds

Substance: ectoLRP4-Myc (extracellular domain of rat LRP4 fused to one Myc tag followed by a 6xHis tag) (from UniProt Q9QYP1 21-1723) (domain or fragment)
- binding [8]: binds
- binding [15]: binds
- binding [16]: binds

Substance: nontagged LRP4 (from UniProt Q9QYP1 21-1905) (receptor)
- binding [19]: binds
- binding [20]: binds

Other lines, results leading:

- binding [6]: binds
Substance: ColQ-Myc expressed from rAAV2-ColQ-Myc (human ColQ1a with a Myc tag after amino acid 24) (from UniProt Q9Y215 23-455)

- binding [7]: binds
- binding [8]: binds
- binding [9]: binds
Substance: LRP4-Myc (rat low-density lipoprotein receptor-related protein 4 with a C-terminal Myc tag) (from UniProt Q9QYP1 21-1905)

- binding [12]: binds
Substance: ectoLRP4Δ3-AP (mouse ectoLRP4-AP lacking amino acids 1048 to 1353, including the third β-propeller domain) (from UniProt Q8VI56 21-1725) (domain or fragment)

- binding [12]: binds
Substance: ectoLRP4Δ234-AP (mouse ectoLRP4-AP with amino acids 737 to 1693 deleted) (from UniProt Q8VI56 21-1725) (domain or fragment)

- binding [17]: no binding
Substance: ectoLRP6-Myc (human LRP6-Myc with the intracellular and transmembrane domains deleted) (from UniProt O75581 20-1370) (domain or fragment)

- binding [18]: no binding
- binding [13]: no binding
Substance: human placental alkaline phosphatase (AP) (from UniProt P05187 23-506) (enzyme)
